# Hit rate of the full screen: of about 3,200 compounds, about 110 (3.4%) showed an effect of 50% or more. This is one part of the list.
# Tested on: T1, V. cholerae SAD30
# T1 construct: SAD30
# Set-up: species or system S. aureus MSSA476 (TSB) or V. cholerae SAD30 (LB); 384-well bacterial growth screen at 25 uM, OD600 relative to DMSO control
# Settings: relative growth, OD600, LB; 25 µM; inhibitor
row,Structure (SMILES),% of control remaining [%]
1,"N#CCCN(C(=O)CCl)c1ccccc1 [6-I12, 2-chloro-N-(2-cyanoethyl)-N-phenylacetamide]",84.7853
2,"C=CC(=O)N1CCC(C(=O)NCCn2c(=O)[nH]c3ccccc32)CC1 [3-J03, N-[2-(2-oxo-2,3-dihydro-1H-1,3-benzodiazol-1-yl)ethyl]-1-(prop-2-enoyl)piperidine-4-carboxamide]",107.44
3,"C=CC(=O)Nc1ccc(C(=O)NC2CC(C)(C)OC2=O)cc1 (centres unmarked) [3-B08, N-(5,5-dimethyl-2-oxooxolan-3-yl)-4-(prop-2-enamido)benzamide]",110.263
4,"COc1cc(NC(=O)CCl)c(OC)cc1Cl [5-C05, 2-chloro-N-(4-chloro-2,5-dimethoxyphenyl)acetamide]",97.5097
5,"C=CC(=O)N(CC)CC(=O)N1CCCC(F)(F)C1 [2-G14, N-[2-(3,3-difluoropiperidin-1-yl)-2-oxoethyl]-N-ethylprop-2-enamide]",90.0415
6,"C=CC(=O)NCc1cn([C@@H]2COC[C@H]2OC)nn1 [1-J17, N-({1-[(3R,4S)-4-methoxyoxolan-3-yl]-1H-1,2,3-triazol-4-yl}methyl)prop-2-enamide]",85.0523
7,"C=CC(=O)Nc1ncc(-c2cccc(C)c2)s1 [1-P14, N-[5-(3-methylphenyl)-1,3-thiazol-2-yl]prop-2-enamide]",122.915
8,"CC(=O)NCCc1ccc(C(=O)CCl)cc1 [10-N03, N-{2-[4-(2-chloroacetyl)phenyl]ethyl}acetamide]",115.8
9,"C=CC(=O)N(CC)CC(=O)N1CCC(c2nncn2C)CC1 [2-L10, N-ethyl-N-{2-[4-(4-methyl-4H-1,2,4-triazol-3-yl)piperidin-1-yl]-2-oxoethyl}prop-2-enamide]",89.5783
10,"COC(=O)c1sccc1N1C(=O)C=CC1=O [10-A07, methyl 3-(2,5-dioxo-2,5-dihydro-1H-pyrrol-1-yl)thiophene-2-carboxylate]",26.4952
11,"C=CC(=O)N(C)CC(=O)NC1CCN(C(=O)c2ccc(C)cc2)CC1 [2-N14, N-methyl-N-({[1-(4-methylbenzoyl)piperidin-4-yl]carbamoyl}methyl)prop-2-enamide]",87.4168
12,"CC(Cl)C(=O)N1CCN(Cc2cnn(-c3ccccc3)c2)CC1 (centres unmarked) [7-F13, 2-chloro-1-{4-[(1-phenyl-1H-pyrazol-4-yl)methyl]piperazin-1-yl}propan-1-one]",72.2947
13,"CCC(NC(=O)CCl)c1cccc(OC)n1 (centres unmarked) [7-D08, 2-chloro-N-[1-(6-methoxypyridin-2-yl)propyl]acetamide]",84.8505
14,"Cc1ccc(NC(=O)CCl)cc1S(=O)(=O)N1CCOCC1 [4-L07, 2-chloro-N-[4-methyl-3-(morpholine-4-sulfonyl)phenyl]acetamide]",104.55
15,"O=CN1CCN(C(=O)CCl)CC1 [6-M17, 4-(2-chloroacetyl)piperazine-1-carbaldehyde]",91.0039
16,"Cc1cc(C)c(NC(=O)C(C#N)=Cc2ccccc2)c(C)c1 [8-E19, 2-cyano-3-phenyl-N-(2,4,6-trimethylphenyl)prop-2-enamide]",73.7593
17,"CCc1nc2c(s1)C(N(C)C(=O)C(C)Cl)CCC2 (centres unmarked) [7-N17, 2-chloro-N-(2-ethyl-4,5,6,7-tetrahydro-1,3-benzothiazol-7-yl)-N-methylpropanamide]",75.2024
18,"N#CC(=Cc1ccc([N+](=O)[O-])cc1)C(=O)Nc1ccc(Cl)cc1 [8-O11, N-(4-chlorophenyl)-2-cyano-3-(4-nitrophenyl)prop-2-enamide]",68.7288
19,"O=C(CCl)NCc1cn[nH]c1C(F)F [7-D05, 2-chloro-N-{[5-(difluoromethyl)-1H-pyrazol-4-yl]methyl}acetamide]",91.5909
20,"C=CC(=O)NC1CC2CCC(C1)S2 (centres unmarked) [1-B06, N-{8-thiabicyclo[3.2.1]octan-3-yl}prop-2-enamide]",104.024
21,"C=CC(=O)NCc1nc(OC)cc(OC)n1 [2-M20, N-[(4,6-dimethoxypyrimidin-2-yl)methyl]prop-2-enamide]",92.5118
22,"N#CC(=Cc1ccc(Oc2cnccn2)cc1)C(=O)NC1CCCC1 [9-F20, 2-cyano-N-cyclopentyl-3-[4-(pyrazin-2-yloxy)phenyl]prop-2-enamide]",83.2767

row,Structure (SMILES),% of control remaining [%]
1,"CC(Cl)C(=O)NCc1nnnn1CC1CC1 (centres unmarked) [6-F14, 2-chloro-N-{[1-(cyclopropylmethyl)-1H-1,2,3,4-tetrazol-5-yl]methyl}propanamide]",80.2351
2,"COc1cc(OC)c(NC(=O)CCl)cc1Cl [4-G11, 2-chloro-N-(5-chloro-2,4-dimethoxyphenyl)acetamide]",92.8186
3,"C=CC(=O)NCCN1CCn2nccc2C1 [3-F21, N-(2-{4H,5H,6H,7H-pyrazolo[1,5-a]pyrazin-5-yl}ethyl)prop-2-enamide]",96.5006
4,"CC(Cl)C(=O)N1CCN(C)C(c2nc(C3CC3)no2)C1 (centres unmarked) [7-I08, 2-chloro-1-[3-(3-cyclopropyl-1,2,4-oxadiazol-5-yl)-4-methylpiperazin-1-yl]propan-1-one]",78.903
5,"Cc1ccc(C)c(-c2cc(NC(=O)CCl)n(-c3ccccc3)n2)c1 [4-M14, 2-chloro-N-[3-(2,5-dimethylphenyl)-1-phenyl-1H-pyrazol-5-yl]acetamide]",99.8922
6,"CCC(c1cc(Cl)cc(Cl)c1)N(C)C(=O)CCl (centres unmarked) [7-L10, 2-chloro-N-[1-(3,5-dichlorophenyl)propyl]-N-methylacetamide]",75.0702
7,"COCC(C)NC(=O)C(C#N)=Cc1cccc(F)c1F (centres unmarked) [9-F09, 2-cyano-3-(2,3-difluorophenyl)-N-(1-methoxypropan-2-yl)prop-2-enamide]",89.8029
8,"CC(Cl)C(=O)N1CCC(c2nc(C3CC3)no2)(C(F)(F)F)C1 (centres unmarked) [7-K12, 2-chloro-1-[3-(3-cyclopropyl-1,2,4-oxadiazol-5-yl)-3-(trifluoromethyl)pyrrolidin-1-yl]propan-1-one]",76.2597
9,"Cc1cc(C(C)N(Cc2c(C)noc2C)C(=O)CCl)c(C)o1 (centres unmarked) [5-E16, 2-chloro-N-[(3,5-dimethyl-1,2-oxazol-4-yl)methyl]-N-[1-(2,5-dimethylfuran-3-yl)ethyl]acetamide]",91.6255
10,"CCOc1ccccc1NC(=O)C(C#N)=Cc1c(F)cccc1F [8-G21, 2-cyano-3-(2,6-difluorophenyl)-N-(2-ethoxyphenyl)prop-2-enamide]",75.2549
11,"CNC(=O)c1ccc(O)c(NC(=O)CCl)c1 [5-C10, 3-(2-chloroacetamido)-4-hydroxy-N-methylbenzamide]",93.1386
12,"CC(C#N)CSc1ccccc1NC(=O)CCl (centres unmarked) [6-K16, 2-chloro-N-{2-[(2-cyano-2-methylethyl)sulfanyl]phenyl}acetamide]",86.757
13,"COc1ccc(Cl)cc1C(O)CNC(=O)CCl (centres unmarked) [7-N06, 2-chloro-N-[2-(5-chloro-2-methoxyphenyl)-2-hydroxyethyl]acetamide]",88.8155
14,"Cc1ccc(C)c(N2C(=O)C=CC2=O)c1 [10-F13, 1-(2,5-dimethylphenyl)-2,5-dihydro-1H-pyrrole-2,5-dione]",31.3267
15,"C=CC(=O)N1CCC(C(=O)NC2CCc3ncnn3C2)CC1 (centres unmarked) [2-P20, 1-(prop-2-enoyl)-N-{5H,6H,7H,8H-[1,2,4]triazolo[1,5-a]pyridin-6-yl}piperidine-4-carboxamide]",97.2981
16,"CC(C)(C)c1ccc(C=C(C#N)C(=O)Nc2ccc(C(=O)O)cc2)cc1 [9-I21, 4-[3-(4-tert-butylphenyl)-2-cyanoprop-2-enamido]benzoic acid]",98.9123
17,"Cc1cn2c(C=C(C#N)C(=O)Nc3c(C)cccc3C)c(C)nc2s1 [9-N19, 2-cyano-3-{2,6-dimethylimidazo[2,1-b][1,3]thiazol-5-yl}-N-(2,6-dimethylphenyl)prop-2-enamide]",83.2767
18,"CC1=C(C#N)C(=O)N(C)C(=O)C1=Cc1ccc(-c2ccc(F)cc2)o1 [9-I18, 5-{[5-(4-fluorophenyl)furan-2-yl]methylidene}-1,4-dimethyl-2,6-dioxo-1,2,5,6-tetrahydropyridine-3-carbonitrile]",86.4038
19,"CC(Cl)C(=O)N[C@H]1CCO[C@@H]1c1nccn1-c1ccccc1 (mixture of isomers) [7-A12, rac-2-chloro-N-[(2R,3R)-2-(1-phenyl-1H-imidazol-2-yl)oxolan-3-yl]propanamide]",85.1148
20,"CC(Cl)C(=O)N1CCCC1Cc1cccc(F)c1F (centres unmarked) [7-E19, 2-chloro-1-{2-[(2,3-difluorophenyl)methyl]pyrrolidin-1-yl}propan-1-one]",66.4794
21,"C=CC(=O)Nc1ccccc1CCC(N)=O [1-A18, N-[2-(2-carbamoylethyl)phenyl]prop-2-enamide]",86.6966
22,"CC(Cl)C(=O)N1CCN(C(=O)CN2C(=O)CCC2=O)CC1 (centres unmarked) [6-B11, 1-{2-[4-(2-chloropropanoyl)piperazin-1-yl]-2-oxoethyl}pyrrolidine-2,5-dione]",80.2351

# Reference: article PMC11995724, “Antibiotic target discovery by integrated phenotypic and activity-based profiling of electrophilic fragments” (Cell chemical biology, 2025)
